Results reported in the supplement of paper PMC4604168 (melanoma cell lines).
This is one part of the list. Many values rest on one well or one pass, so single values are uncertain.

Assays:
Assay in all cases: cell count relative to DMSO control; melanoma cells; higher = more viable cells
Conditions in all cases: library dose: standard library concentration; 72 h
G361 = system: G361
IPC-298 = system: IPC-298
IST-MEL1 = system: IST-MEL1
LB2518-MEL = system: LB2518-MEL
LOXIMVI = system: LOXIMVI
MEL-HO = system: MEL-HO
MZ2-MEL = system: MZ2-MEL
MeWo = system: MeWo
RPMI7951 = system: RPMI7951
RVH-421 = system: RVH-421
SkMel28 = system: SkMel28
SkMel2 = system: SkMel2
SkMel30 = system: SkMel30
SkMel5 = system: SkMel5
UACC257 = system: UACC257
UACC62 = system: UACC62
WM115 = system: WM115
WM1716 = system: WM1716
WM1745 = system: WM1745
WM3526 = system: WM3526
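Also: cells treated in 1,536-well plates, then fixed and DAPI-stained, with nuclei counted from automated high-throughput microscope images.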

Compound: COc1cc2c(Oc3ccc4[nH]c(C)cc4c3F)ncnc2cc1OCCCN1CCCC1 [cediranib] + CCc1ccc(CCOc2ccc(CC3SC(=O)NC3=O)cc2)nc1 [pioglitazone] (first compound 2 µM, partner dose 10 µM)
- cell count (G361): 95.2%
- cell count (IPC-298): 99.7%
- cell count (IST-MEL1): 104%
- cell count (LB2518-MEL): 126%
- cell count (LOXIMVI): 97.4%
- cell count (MEL-HO): 99.1%
- cell count (MZ2-MEL): 55.2%
- cell count (MeWo): 83.8%
- cell count (RPMI7951): 99%
- cell count (RVH-421): 82.2%
- cell count (SkMel28): 126%
- cell count (SkMel2): 86.5%
- cell count (SkMel30): 99%
- cell count (SkMel5): 68.1%
- cell count (UACC257): 95.1%
- cell count (UACC62): 87.5%
- cell count (WM115): 86.9%
- cell count (WM1716): 96%
- cell count (WM1745): 98.5%
- cell count (WM3526): 81.1%

Compound: CCCCCCCCc1ccc(CCC(N)(CO)CO)cc1 [fingolimod] + Cc1nc(Nc2ncc(C(=O)Nc3c(C)cccc3Cl)s2)cc(N2CCN(CCO)CC2)n1 [dasatanib] (first compound 10 µM, partner dose 0.02 µM)
- cell count (G361): 0.794%
- cell count (IPC-298): 77.4%
- cell count (IST-MEL1): 9.72%
- cell count (LB2518-MEL): 0.202%
- cell count (LOXIMVI): 33.6%
- cell count (MEL-HO): 6.46%
- cell count (MZ2-MEL): 47.2%
- cell count (MeWo): 53.1%
- cell count (RPMI7951): 1.68%
- cell count (RVH-421): 10.6%
- cell count (SkMel28): 4.99%
- cell count (SkMel2): 1.21%
- cell count (SkMel30): 49.3%
- cell count (SkMel5): 54.4%
- cell count (UACC257): 65.4%
- cell count (UACC62): 20.7%
- cell count (WM115): 25%
- cell count (WM1716): 45.7%
- cell count (WM1745): 36.2%
- cell count (WM3526): 57.7%

Compound: CN(NC(=O)CC(=O)NN(C)C(=S)c1ccccc1)C(=S)c1ccccc1 + O=C(Nc1ccccc1)c1cc([N+](=O)[O-])ccc1Cl [GW9662] (first compound 0.03 µM, partner dose 10 µM)
- cell count (G361): 32.8%
- cell count (IPC-298): 60.1%
- cell count (IST-MEL1): 13.3%
- cell count (LB2518-MEL): 21.5%
- cell count (LOXIMVI): 69.2%
- cell count (MEL-HO): 73.9%
- cell count (MZ2-MEL): 67.2%
- cell count (MeWo): 14.1%
- cell count (RPMI7951): 60.8%
- cell count (RVH-421): 45.7%
- cell count (SkMel28): 17.1%
- cell count (SkMel2): 48.2%
- cell count (SkMel30): 77.9%
- cell count (SkMel5): 50.2%
- cell count (UACC257): 71.3%
- cell count (UACC62): 44.3%
- cell count (WM115): 17%
- cell count (WM1716): 80.4%
- cell count (WM1745): 27.5%
- cell count (WM3526): 73.5%

Compound: NC(=O)c1ccc(N(C(N)=O)c2c(F)cccc2F)nc1-c1ccc(F)cc1F + O=C(O)c1ccc2c(c1)nc(Nc1cccc(Cl)c1)c1ccncc12 [CX4945] (first compound 2 µM, partner dose 2 µM)
- cell count (G361): 64.6%
- cell count (IPC-298): 71.6%
- cell count (IST-MEL1): 91%
- cell count (LB2518-MEL): 103%
- cell count (LOXIMVI): 46%
- cell count (MEL-HO): 64.2%
- cell count (MZ2-MEL): 80%
- cell count (MeWo): 77.8%
- cell count (RPMI7951): 65.7%
- cell count (RVH-421): 83.9%
- cell count (SkMel28): 61.3%
- cell count (SkMel2): 96.9%
- cell count (SkMel30): 77.7%
- cell count (SkMel5): 63.8%
- cell count (UACC257): 144%
- cell count (UACC62): 98.6%
- cell count (WM115): 112%
- cell count (WM1716): 96.3%
- cell count (WM1745): 65.9%
- cell count (WM3526): 67.3%

Compound: CC(C)(C)c1cnc(CSc2cnc(NC(=O)C3CCNCC3)s2)o1 + O=C(Nc1cccc(Cl)c1)Nc1ncc(CCNc2ncnc3ccsc23)s1 [SNS314] (first compound 0.05 µM, partner dose 0.004 µM)
- cell count (G361): 95.6%
- cell count (IPC-298): 98%
- cell count (IST-MEL1): 81.1%
- cell count (LB2518-MEL): 75.9%
- cell count (LOXIMVI): 62.9%
- cell count (MEL-HO): 88.6%
- cell count (MZ2-MEL): 85.3%
- cell count (MeWo): 81.8%
- cell count (RPMI7951): 45.6%
- cell count (RVH-421): 100%
- cell count (SkMel28): 52.7%
- cell count (SkMel2): 64.5%
- cell count (SkMel30): 90.2%
- cell count (SkMel5): 82.1%
- cell count (UACC257): 82.7%
- cell count (UACC62): 87.7%
- cell count (WM115): 54.1%
- cell count (WM1716): 59.8%
- cell count (WM1745): 67.7%
- cell count (WM3526): 98.3%

Compound: CC(C)(C)c1cnc(CSc2cnc(NC(=O)C3CCNCC3)s2)o1 + Cn1cc(/C=C2\C(=O)Nc3cccnc32)c2ccccc21 [GW441756] (first compound 0.05 µM, partner dose 2 µM)
- cell count (G361): 96.6%
- cell count (IPC-298): 91.3%
- cell count (IST-MEL1): 106%
- cell count (LB2518-MEL): 67.1%
- cell count (LOXIMVI): 97.6%
- cell count (MEL-HO): 107%
- cell count (MZ2-MEL): 73.8%
- cell count (MeWo): 88.8%
- cell count (RPMI7951): 42.4%
- cell count (RVH-421): 83.4%
- cell count (SkMel28): 51.2%
- cell count (SkMel2): 69.7%
- cell count (SkMel30): 68.2%
- cell count (SkMel5): 40.1%
- cell count (UACC257): 90.4%
- cell count (UACC62): 51.5%
- cell count (WM115): 75.7%
- cell count (WM1716): 80.1%
- cell count (WM1745): 49.5%
- cell count (WM3526): 97.7%

Compound: CCCCCCCCc1ccc(CCC(N)(CO)CO)cc1 [fingolimod] + CNC(=O)c1cc(Oc2ccc(NC(=O)Nc3ccc(Cl)c(C(F)(F)F)c3)cc2)ccn1 [sorafenib] (first compound 10 µM, partner dose 2 µM)
- cell count (G361): 0.878%
- cell count (IPC-298): 21.3%
- cell count (IST-MEL1): 3.43%
- cell count (LB2518-MEL): 0.231%
- cell count (LOXIMVI): 5.8%
- cell count (MEL-HO): 0.591%
- cell count (MZ2-MEL): 0.376%
- cell count (MeWo): 11.5%
- cell count (RPMI7951): 2.05%
- cell count (RVH-421): 3.56%
- cell count (SkMel28): 0.76%
- cell count (SkMel2): 0.091%
- cell count (SkMel30): 9.59%
- cell count (SkMel5): 28.5%
- cell count (UACC257): 54%
- cell count (UACC62): 9.82%
- cell count (WM115): 10.7%
- cell count (WM1716): 13.4%
- cell count (WM1745): 2.6%
- cell count (WM3526): 9.93%

Compound: CC(C)(C)c1cnc(CSc2cnc(NC(=O)C3CCNCC3)s2)o1 + COc1cc(N2CCC(N3CCN(C)CC3)CC2)ccc1Nc1ncc(Cl)c(Nc2ccccc2S(=O)(=O)C(C)C)n1 [NVP-TAE684] (first compound 0.05 µM, partner dose 0.4 µM)
- cell count (G361): 85.5%
- cell count (IPC-298): 88.8%
- cell count (IST-MEL1): 95.3%
- cell count (LB2518-MEL): 65.7%
- cell count (LOXIMVI): 72.1%
- cell count (MEL-HO): 82.3%
- cell count (MZ2-MEL): 68.5%
- cell count (MeWo): 55.9%
- cell count (RPMI7951): 28.1%
- cell count (RVH-421): 81.9%
- cell count (SkMel28): 39.6%
- cell count (SkMel2): 51.6%
- cell count (SkMel30): 108%
- cell count (SkMel5): 48.1%
- cell count (UACC257): 92%
- cell count (UACC62): 50.8%
- cell count (WM115): 63.1%
- cell count (WM1716): 58%
- cell count (WM1745): 49.3%
- cell count (WM3526): 68.6%
